The campaign covered roughly 310,000 compounds. About 11,000 (3.5%) were called active. Inconclusive results, whose numbers are uncertain, are shown with a selection of clear calls. Calls follow the shape of the dose curve; as a rule, active = well fitted inhibition curve with a large enough effect; inconclusive = small, poorly fitted or top-dose-only effect, or effect the other way; inactive = flat fitted curve, though single readings scatter. Potencies of inconclusive entries are left out as doubtful fits.
Experiment: VP16 counterscreen qHTS for inhibitors of ROR gamma transcriptional activity;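 also: Gal4-VP16 expression switched on by copper sulfate through the metallothionein promoter; nearly all actives have a fitted effect of over 50% in size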
Settings: Drosophila S2 Gal4-VP16 UAS-luciferase, luminescence, 20 h; activity, negative = inhibition: at 53.6 µM (top of the series)
% is scaled to controls: 0 for no effect and ±100 for the full control effect; potency is read from the fitted curve at half-maximal effect; tags tell the direction and shape of the fitted curve.

| Structure (SMILES) | Potency | activity, negative = inhibition |
| --- | --- | --- |
| Cc1cccc(NC(=S)NC(=O)/C=C/c2ccco2)n1 | inconclusive [inhibitor, single point] | – |
| CCOC(=O)COc1ccc2nsnc2c1 | – | inactive: 3.36% |
| CC(=O)N1CCCC(N2CCN(c3cccc(C(F)(F)F)c3)CC2)C1 (stereo unspecified) | – | inactive: 6.41% |
| Cc1cc(Nc2ccc([N+](=O)[O-])cc2)c2ccccc2n1 | inconclusive [inhibitor, single point] | – |
| N#C/C(=C(/O)CO/N=C/c1ccccc1Cl)c1nc2ccccc2[nH]1 | – | inactive: -2.33% |
| CCN(CC)CC(=O)Nc1ccc2c(c1)N(C(=O)CN(CC)CC)c1ccccc1CC2 | – | inactive: -7.98% |
| Cc1ccc(-c2cn3c(=O)cc(C)[nH]c3n2)cc1 | active: 7.94 µM | – |
| Cc1nnc(NC(=O)CSc2nccn2Cc2ccccc2)s1 | – | inactive: 0.535% |
| CCOC(=O)N1CCN(S(=O)(=O)c2ccc(C(=O)Nc3nnc(C4CC4)o3)cc2)CC1 | active: 3.16 µM | – |
| COc1ccc(-n2c(=S)[nH]c3cc(C(=O)NCCCN4CCOCC4)ccc3c2=O)cc1OC | – | inactive: 3.9% |
| Cc1ccc(/C=C/C(=O)N2CCN(c3ncccn3)CC2)o1 | inconclusive [inhibitor, single point] | – |
| Cc1ccsc1C(=O)OCc1csc(-c2ccccc2)n1 | inconclusive [inhibitor, single point] | – |
| COc1ccc(NS(=O)(=O)c2ccc3c(c2)OCCO3)cc1OC | active: 7.08 µM | – |
| COc1ccc(C(=O)NNC(=O)CSc2nnc(C3CC3)n2C)cc1 | – | inactive: -5.28% |
| Cc1ccc2cc(NC(=O)Cc3ccccc3)ccc2n1 | – | inactive: -6.38% |
| O=C(NNc1c2ccccc2nc2ccccc12)C12CC3CC(CC(C3)C1)C2 | inconclusive [inhibitor, single point] | – |
| CCOc1ccc(CN2CCCC(CO)(Cc3ccc(F)cc3)C2)cc1 (stereo unspecified) | – | inactive: -9.15% |
| C=CS(=O)c1sc(Cl)c(N2CCOCC2)c1[N+](=O)[O-] (stereo unspecified) | active: 3.98 µM | – |
| O=C1CCCN1CCCNC(=S)Nc1ccc(Nc2ccccc2)cc1 | inconclusive [inhibitor, single point] | – |
| O=C1CC(SCc2nc3ccccc3[nH]2)C(=O)N1c1ccc(F)cc1 (stereo unspecified) | inconclusive [inhibitor, single point] | – |
| CCn1nc(C)c(NC(=O)CCCSc2nc(-c3ccco3)cc(C(F)(F)F)n2)c1C | inconclusive [inhibitor, single point] | – |
| Cc1ccc(SCc2c(C#N)c3ccccc3n2C)cc1 | inconclusive [activator, single point] | – |
| COc1ccc(Cl)cc1-c1n[nH]c(=S)n1Cc1ccccc1 | active: 5.01 µM | – |
| O=C(NC(=S)Nc1ccc(CN2CCCCC2)cc1)c1cccc(OCc2ccccc2)c1 | inconclusive [inhibitor, single point] | – |

| Structure (SMILES) | Potency | activity, negative = inhibition |
| --- | --- | --- |
| Cc1cccc(C(=O)O/N=C(\N)Cc2ccc([N+](=O)[O-])cc2)c1 | inconclusive [inhibitor, partial curve] | – |
| N#CC1=C(N)S[C@H](C(=O)C23CC4CC(CC(C4)C2)C3)[C@H]1c1ccncc1 | inconclusive [inhibitor, single point] | – |
| CCn1c(SCC(=O)NC2CCCCC2)nnc1C(CO)NC(=O)c1ccccc1 (stereo unspecified) | – | inactive: 1.84% |
| Cc1ccc2[nH]c3c(N4CCOCC4)ncnc3c2c1 | inconclusive [inhibitor, single point] | – |
| CCOc1ccc2ccccc2c1/C=N/n1cncn1 | inconclusive [inhibitor, single point] | – |
| CCOc1ccc(OCc2ccc(C(=O)NC(C)C)o2)cc1 | – | inactive: 5.59% |
| CC(C)(C)n1ncc2c(=O)n(CC(=O)OCc3ccccc3)cnc21 | active: 1.58 µM | – |
| O=C(CSc1nc2ccc([N+](=O)[O-])cc2[nH]1)c1ccc(Cl)cc1 | inconclusive [inhibitor, single point] | – |
| CC(=O)Nc1ccc(-c2csc(NCc3ccco3)n2)cc1 | inconclusive [activator, single point] | – |
| COC(=O)/C=C\c1cc(O)ccc1O | active: 11.2 µM | – |
| Cc1ccc(NC(=S)NCc2ccc(Cl)cc2)c(OC(F)F)c1 | active: 5.01 µM | – |
| COc1ccc(C(=O)c2sc(NC(C)C)nc2N)cc1OC | inconclusive [inhibitor, single point] | – |
| O=C(c1cc([N+](=O)[O-])ccc1N1CCOCC1)N1CCCCC1 | – | inactive: -7.93% |
| COc1cc(OC)cc(C(=O)NC(=S)NCc2ccco2)c1 | active: 11.2 µM | – |
| COc1ccc(OC2CCN(S(=O)(=O)c3cccc(F)c3)CC2)cc1 | – | inactive: 3.38% |
| CCOC(=O)CC(=O)CSc1nc2c(cc1C#N)CCC2 | inconclusive [inhibitor, single point] | – |
| CCCn1nnc(NC(=O)c2ccc([N+](=O)[O-])cc2Cl)n1 | inconclusive [activator, partial curve] | – |
| Clc1ccc(N2COC3c4cccc5cccc(c45)C32)cc1 (stereo unspecified) | inconclusive [activator, partial curve, poor fit] | – |
| O=C1C2C3C=CC(CC3)C2C(=O)N1/N=C/c1c(O)ccc2ccccc12 (stereo unspecified) | inconclusive [inhibitor, full curve] | – |
| CN(C)S(=O)(=O)c1ccc(C(=O)NCC2CC2(Cl)Cl)cc1 (stereo unspecified) | inconclusive [activator, partial curve, poor fit] | – |
| COc1ccc(-n2nnnc2-c2cnc3cc4c(cc3c2C)OCO4)cc1 | – | inactive: -21.9% |
| CCc1cc(=O)oc2cc(C)cc(OCC(C)=O)c12 | inconclusive [inhibitor, single point] | – |
| O=C(CCl)Nc1ccc(-c2ccccc2)cc1 | inconclusive [inhibitor, single point] | – |
| CC(C)NC1=C(Cl)C(=O)c2ccccc2C1=O | inconclusive [inhibitor, single point] | – |

| Structure (SMILES) | Potency | activity, negative = inhibition |
| --- | --- | --- |
| COC(=O)[C@H](C)[C@H]1C[C@]1(C)[C@H](NC(=O)OCc1ccccc1)c1ccccc1 | inconclusive [inhibitor, single point] | – |
| O=C(NCc1ccccn1)C(=O)N/N=C/c1ccc2c(c1)OCO2 | – | inactive: 15.1% |
| CCCn1c(=O)c(C(=O)NCCc2ccc(Cl)cc2)c(O)c2ccccc21 | inconclusive [inhibitor, single point] | – |
| O=C(Nc1cccc(F)c1)c1cc(S(=O)(=O)NCCC2=CCCCC2)ccc1F | inconclusive [inhibitor, single point] | – |
| COC(=O)c1cnn(-c2ccc(F)cc2F)c1/C=N/NC(=S)NC(C)(C)C | inconclusive [inhibitor, single point] | – |
| CC1(C)CC(C)(c2ccc(O)cc2O)N(c2ccc3ccccc3c2)C(=S)N1 (stereo unspecified) | inconclusive [inhibitor, single point] | – |
| CCN(CC)S(=O)(=O)c1ccc(O)c(C(=O)OCC(=O)Nc2ccc(OC(F)(F)F)cc2)c1 | inconclusive [inhibitor, single point] | – |
| CCOc1ccc(Nc2nc(Cc3nnc(SCC(=O)N(CC)CC)n3C)cs2)cc1 | inconclusive [inhibitor, single point] | – |
| Cc1c(N=C2NC(=O)/C(=C/c3ccc(O)cc3)S2)c(=O)n(-c2ccccc2)n1C | inconclusive [inhibitor, partial curve] | – |
| O=C(N/N=C\c1ccc(-c2ccc([N+](=O)[O-])cc2)o1)c1ccc2c(c1)OCO2 | inconclusive [inhibitor, partial curve] | – |
| CCOc1cccc(-c2c(C(=O)N/N=C/c3ccoc3)nnn2-c2nonc2N)c1 | inconclusive [inhibitor, single point] | – |
| O=C(/C=C/Nc1ccc([N+](=O)[O-])cc1Br)c1cccc2ccccc12 | inconclusive [inhibitor, partial curve] | – |
| COc1cccc(NC(=S)N2CCN(C/C=C/c3ccccc3)CC2)c1 | inconclusive [inhibitor, single point] | – |
| C/C(Cn1nnc([N+](=O)[O-])n1)=N\NC(=O)c1ccccc1Cl | inconclusive [inhibitor, single point] | – |
| O=C(c1ccncc1)c1ccc(N2CCN(C3CC(=O)N(Cc4ccccc4)C3=O)CC2)cc1 (stereo unspecified) | inconclusive [inhibitor, partial curve] | – |
| CCOC(=O)c1sc(NC(=O)c2cccc(S(=O)(=O)N3CCc4ccccc43)c2)c(C#N)c1C | active: 5.62 µM | – |
| CC(C)c1ccc(C(=O)NN2CCOCC2)cc1 | inconclusive [inhibitor, single point] | – |
| COc1cccc(NC(=S)N(CCCN2CCCC2)Cc2cccn2Cc2ccc(Cl)cc2)c1 | inconclusive [inhibitor, single point] | – |
| COC(=O)CCC(=O)Oc1ccc(OC(=O)CCC(=O)OC)cc1 | inconclusive [inhibitor, single point] | – |
| CCc1cc(C(c2ccc(OC)c(OC)c2)N2CCOCC2)c(NC(=O)c2ccccc2)s1 (stereo unspecified) | inconclusive [inhibitor, single point] | – |
| CCN(Cc1nc(-c2ccccc2)no1)C(=O)COc1cccc(OC)c1 | inconclusive [inhibitor, single point] | – |
| COc1ccc(NC(=O)c2ccc(F)c(F)c2)c2ccccc12 | – | inactive: -16.6% |
| CCCCN(C)CC(O)Cn1cc(/C=C/C(=O)c2cccs2)c2ccccc21 (stereo unspecified) | inconclusive [inhibitor, single point] | – |

From PubChem BioAssay AID2546 (National Center for Advancing Translational Sciences (NCATS), 2010)
